Laboratory results: PubChem BioAssay AID2451 (National Center for Advancing Translational Sciences (NCATS), 2010)
About 2,100 (0.72%) of roughly 290,000 compounds were called active. Inconclusive means that the source gave no clear call. Such entries were picked first, then a sample of the others. Calls come from the whole dose curve; as a rule, active = well fitted inhibition curve with a large enough effect; inconclusive = small, poorly fitted or top-dose-only effect, or effect the other way; inactive = flat fitted curve, though single readings scatter. Where the call is inconclusive, the potency comes from a doubtful curve fit.

molecular target: Fructose-bisphosphate aldolase (Giardia intestinalis (strain ATCC 50803 / WB clone C6)) (UniProt A8B2U2); test: qHTS Assay for Inhibitors of Fructose-1,6-bisphosphate Aldolase from Giardia Lamblia; settings: purified Giardia FBPA; series mostly up to 59.6 µM; note: nearly all actives have a fitted effect of over 55% in size
UniProt A8B2U2, sequence (A8B2U2 whole entry, looked up): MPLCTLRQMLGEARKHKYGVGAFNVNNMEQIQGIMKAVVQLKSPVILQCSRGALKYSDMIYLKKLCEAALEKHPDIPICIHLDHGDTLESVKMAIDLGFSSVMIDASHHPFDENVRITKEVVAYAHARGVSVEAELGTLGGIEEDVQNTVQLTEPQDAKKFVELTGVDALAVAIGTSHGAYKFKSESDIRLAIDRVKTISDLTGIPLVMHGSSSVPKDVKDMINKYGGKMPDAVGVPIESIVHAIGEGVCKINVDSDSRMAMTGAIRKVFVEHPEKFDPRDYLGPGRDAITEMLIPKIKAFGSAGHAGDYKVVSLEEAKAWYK
Procedure, shortened: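 Giardia FBPA (40 nM reagent) was preincubated 10 min at RT with compound (up to 57.5 uM final), then substrate plus GAPDH/TPI/NAD/arsenate coupling system with diaphorase/resazurin was added; resorufin fluorescence (525/598 nm) was read after 20 min.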
Potency is the fitted concentration of half-maximal effect; tags give direction and shape of the fitted curve.

Question: `CC(=O)NNc1nc(-c2ccc(C)cc2)cs1` was tested. Which Potency did it give?
Answer: inactive

Question: `Cc1noc(NS(=O)(=O)c2ccc(NC(=O)CSc3nc4ccccc4s3)cc2)c1C` was tested. Which Potency did it give?
Answer: inconclusive: 22.3 µM [activator, partial curve]

Question: For `Cc1ccc(S(=O)(=O)/N=C(/NC(=S)Nc2ccccc2)c2ccccc2)cc1`, which Potency is on record?
Answer: inconclusive: 35.4 µM [inhibitor, single point]

Question: Which Potency does the source give for `COc1cccc(-c2ccc3c(N)c(C(=O)NC4CC4)sc3n2)c1` here?
Answer: inactive

Question: `Cc1ccccc1C(=O)NC(=S)N(C)C1CCCCC1` was tested. Which Potency did it give?
Answer: inconclusive: 20 µM [inhibitor, partial curve]

Question: `Cc1csc(NC(=O)c2ccc3ccccc3n2)n1` was tested. Which Potency did it give?
Answer: inactive

Question: How did the Potency turn out when `Cc1nn2c(=O)cc(CSc3nc4ccccc4[nH]3)nc2s1` was run?
Answer: inactive

Question: Which Potency does the source give for `O=C(Nc1ccccc1OC(=O)c1ccc(Cl)cc1)c1ccc(Cl)cc1` here?
Answer: inactive

Question: How did the Potency turn out when `CN(C)CCCN1C(=O)C(O)=C(C(=O)c2cc3ccccc3o2)C1c1ccccc1` (stereo not drawn) was run?
Answer: inconclusive: 15.8 µM [activator, partial curve]

Question: Which Potency does the source give for `CCCc1nc2nc(C)c(NS(=O)(=O)c3ccc(Cl)cc3)c(=O)n2[nH]1` here?
Answer: inconclusive: 39.8 µM [inhibitor, single point]

Question: With `Cc1cc(Br)cc(C)c1OCCCCN(C)C` as the compound, how does the Potency read?
Answer: inconclusive: 15.8 µM [inhibitor, partial curve]

Question: How did the Potency turn out when `O=C(Nc1ccnn1C1CCN(Cc2ccc(CO)o2)CC1)c1ccc2c(c1)OCO2` was run?
Answer: inactive

Question: `COc1cc(/C=N/Nc2ccc(F)cc2F)cc(OC)c1O` was tested. Which Potency did it give?
Answer: inconclusive: 22.3 µM [inhibitor, partial curve]

Question: How did the Potency turn out when `C=CCn1c(CSc2nc3ccccc3s2)n[nH]c1=S` was run?
Answer: inactive

Question: For `O=C(NC1CCCCCC1)c1ccc(Br)o1`, which Potency is on record?
Answer: inactive

Question: Which Potency does the source give for `COc1ccc(/C=C/C(=O)c2c(O)n(CCC3=CCCCC3)c(=O)[nH]c2=O)cc1` here?
Answer: inactive

Question: For `COc1ccc(CNc2nn[nH]n2)cc1OC`, which Potency is on record?
Answer: inconclusive: 17.7 µM [inhibitor, partial curve]

Question: For `Clc1cccc(CNCCCSc2ncccn2)c1Cl`, which Potency is on record?
Answer: inconclusive: 22.4 µM [inhibitor, single point]

Question: How did the Potency turn out when `O=C(O)CCNS(=O)(=O)c1ccc(Oc2ccccc2Cl)cc1` was run?
Answer: inconclusive: 15.8 µM [activator, partial curve]

Question: For `ClCC1=Nc2cccc3cccc(c23)N1`, which Potency is on record?
Answer: inconclusive: 17.7 µM [inhibitor, partial curve]

Question: With `Cc1c(Cl)cccc1NC(CC(=O)c1ccccc1)C(=O)OCC(=O)c1cccs1` (stereo not drawn) as the compound, how does the Potency read?
Answer: inactive

Question: With `Cc1cccc(OCCSc2nc(N)cc(N)n2)c1` as the compound, how does the Potency read?
Answer: active: 15.8 µM

Question: With `COCCNC(=S)Nc1ccc2[nH]c(=O)[nH]c2c1` as the compound, how does the Potency read?
Answer: inconclusive: 14.1 µM [inhibitor, partial curve]

Question: For `Cc1nc2ccc(NC(=O)N3CCSCC3)cc2s1`, which Potency is on record?
Answer: inactive

Question: With `COC(=O)C1=C(C)N(C)C(=O)NC1c1cc2c(cc1[N+](=O)[O-])OCO2` (stereo not drawn) as the compound, how does the Potency read?
Answer: inconclusive: 6.29 µM [inhibitor, partial curve]

Question: `Cc1cccc2c1c(N=NC(N)=S)c(O)n2C1OC(CO)C(O)C(O)C1O` (stereo not drawn) was tested. Which Potency did it give?
Answer: inconclusive: 15.8 µM [inhibitor, partial curve]

Question: For `CCN(CC)c1ccc(/C=N/NC(=O)CCC(=O)NCc2ccccc2)c(O)c1`, which Potency is on record?
Answer: inconclusive: 3.97 µM [inhibitor, partial curve]

Question: How did the Potency turn out when `Cc1ccc(C)c2c1cc(C)c1nnc(SCC(=O)c3cccs3)n12` was run?
Answer: inconclusive: 15.8 µM [inhibitor, partial curve]

Question: For `O=C(COc1ccc(Br)cc1)NNC(=S)NC(=O)c1ccccc1[N+](=O)[O-]`, which Potency is on record?
Answer: inconclusive: 17.7 µM [activator, partial curve]

Question: Which Potency does the source give for `Nc1ccc2nc(-c3cccc(-c4nc5ccc(N)cc5[nH]4)n3)[nH]c2c1` here?
Answer: inconclusive: 35.5 µM [inhibitor, single point]

Question: Which Potency does the source give for `CCCn1cc(SCC(=O)NCC2CCCO2)c2ccccc21` (stereo not drawn) here?
Answer: inactive

Question: For `COc1ccc(-n2ccc(=O)c(C(=O)Nc3ccc(S(=O)(=O)Nc4nccs4)cc3)n2)cc1`, which Potency is on record?
Answer: inconclusive: 28.2 µM [inhibitor, single point]

Question: Which Potency does the source give for `Cc1ccc(Nc2nc(C)cs2)cc1` here?
Answer: inactive

Question: Which Potency does the source give for `O=C(NCCc1cccs1)c1cccs1` here?
Answer: inactive

Question: For `O=C1OC(CO)C(O)C(O)C1O` (stereo not drawn), which Potency is on record?
Answer: inactive

Question: With `COc1cccc(C(=O)N2CCN(C3CCN(Cc4ccccc4)CC3)CC2)c1` as the compound, how does the Potency read?
Answer: inconclusive: 17.7 µM [inhibitor, single point]

Question: `CCn1cnc2cc(NCc3ccc(Br)cc3)ccc21` was tested. Which Potency did it give?
Answer: inactive

Question: How did the Potency turn out when `CCOc1ccccc1OCCN1CCCC1` was run?
Answer: inconclusive: 17.8 µM [inhibitor, partial curve]

Question: With `CCN(CC)S(=O)(=O)c1cc(C(=O)O)c(Cl)cc1Cl` as the compound, how does the Potency read?
Answer: inconclusive: 17.7 µM [activator, single point]

Question: `Clc1ccc(C2Nc3cccc4cccc(c34)N2)cc1` was tested. Which Potency did it give?
Answer: inconclusive: 11.2 µM [inhibitor, partial curve, poor fit]

Question: `Fc1ccc(N2CCN(c3ncnc4nc[nH]c34)CC2)cc1` was tested. Which Potency did it give?
Answer: inactive

Question: `O=c1oc2cc(O)ccc2cc1-c1nc2c(s1)CCc1ccccc1-2` was tested. Which Potency did it give?
Answer: inconclusive: 7.06 µM [inhibitor, partial curve]

Question: How did the Potency turn out when `CC(C)OCCCNC(=O)c1cc(-c2cccs2)nc2ccccc12` was run?
Answer: inactive

Question: How did the Potency turn out when `CC(=O)Oc1ccc(C(=O)[C@H]2[C@H]3C(=O)N(c4ccc(C)cc4C)C(=O)[C@H]3[C@@H]3C=CC=NN32)cc1` was run?
Answer: inconclusive: 19.9 µM [inhibitor, partial curve]

Question: How did the Potency turn out when `CCCS(=O)(=O)N1CCN(Cc2ccccc2C(F)(F)F)CC1` was run?
Answer: inconclusive: 17.7 µM [inhibitor, single point]

Question: `N=C(N)SCc1ncccc1O` was tested. Which Potency did it give?
Answer: inconclusive: 22.3 µM [inhibitor, single point]

Question: `O=C(Nc1ccc2c(c1)OCO2)N1CCN(c2ccccc2)CC1` was tested. Which Potency did it give?
Answer: inactive

Question: For `S=c1[nH]ncn1/N=C/c1ccc(N2CCOCC2)cc1`, which Potency is on record?
Answer: inconclusive: 1.58 µM [inhibitor, partial curve]

Question: Which Potency does the source give for `O=C(Nc1ccc(Br)cc1)c1cc(Br)cc(Br)c1O` here?
Answer: inconclusive: 19.9 µM [inhibitor, single point]

Question: How did the Potency turn out when `O=S(=O)(Nc1ccc2nc(-c3ccco3)[nH]c2c1)c1ccccc1` was run?
Answer: active: 19.9 µM

Question: How did the Potency turn out when `CN(C)c1ncc2nc(-c3cc(F)cc(F)c3)c(=O)n(C[C@H]3CCCO3)c2n1` was run?
Answer: inactive

Question: With `CCN(C(=O)c1coc(=O)c(Br)c1)c1ccc2c(c1)OCO2` as the compound, how does the Potency read?
Answer: inconclusive: 8.91 µM [inhibitor, full curve]

Question: `Cc1ccc(N2CCN(S(=O)(=O)c3nnc(NC(=O)c4ccco4)s3)CC2)cc1` was tested. Which Potency did it give?
Answer: inconclusive: 35.5 µM [inhibitor, single point]

Question: With `Cc1cc(OCc2cc(C(=O)N(C)CCOc3ccccc3)no2)cc(C)c1Cl` as the compound, how does the Potency read?
Answer: inactive

Question: For `COc1ccc(CN2CCN(Cc3ccccc3OC)CC2)cc1`, which Potency is on record?
Answer: active: 14.1 µM

Question: Which Potency does the source give for `O=[N+]([O-])c1c(NCCO)cc(Sc2nc3ccccc3s2)c2nonc12` here?
Answer: inconclusive: 1.41 µM [inhibitor, full curve, poor fit]

Question: With `CCCN1C(=O)/C(=N\OCC(=O)NC23CC4CC(CC(C4)C2)C3)c2ccccc21` as the compound, how does the Potency read?
Answer: inactive

Question: Which Potency does the source give for `COC(=O)c1ccc(Cn2cnc3ccccc3c2=O)cc1` here?
Answer: inactive

Question: `COCCNC(=O)c1ccccc1N(Cc1ccccc1)S(=O)(=O)c1ccc(C)cc1` was tested. Which Potency did it give?
Answer: inconclusive: 14.1 µM [inhibitor, partial curve]

Question: With `CSCC[C@H](N)C(=O)NCC1CCC(C(=O)Nc2ccc3c(c2)OCO3)CC1` (stereo partly drawn) as the compound, how does the Potency read?
Answer: inconclusive: 35.5 µM [inhibitor, single point]

Question: Which Potency does the source give for `COc1cc(-c2cc(=O)c3c(O)cc(O)cc3o2)ccc1O` here?
Answer: inactive

Question: For `COc1cc2c(cc1OC)[C@H](C)N(C(=O)CSc1nc(O)c(C(C)C)c(=O)[nH]1)CC2`, which Potency is on record?
Answer: inconclusive: 31.6 µM [inhibitor, partial curve]

Question: How did the Potency turn out when `Cc1cc(=O)oc2cc3c(cc12)CCCN3` was run?
Answer: inactive

Question: Which Potency does the source give for `COc1ccc(NC(=O)C(C)N2CCN(C)CC2)cc1` (stereo not drawn) here?
Answer: inconclusive: 17.8 µM [inhibitor, partial curve]

Question: Which Potency does the source give for `COc1ccc(-c2nc(-c3ccncc3)no2)c(OC)c1` here?
Answer: inactive

Question: For `Cc1cc(F)ccc1NCc1ccccc1[N+](=O)[O-]`, which Potency is on record?
Answer: inconclusive: 44.6 µM [inhibitor, single point]

Question: Which Potency does the source give for `CC(C)c1onc(C(=O)NCc2cccs2)c1[N+](=O)[O-]` here?
Answer: inactive

Question: For `c1ccc(CCCN2CCN(c3ccccn3)CC2)cc1`, which Potency is on record?
Answer: inconclusive: 17.8 µM [inhibitor, partial curve]

Question: For `O=C(CSc1nnc(Cc2cccs2)n1CCc1ccccc1)N1CCCc2ccccc21`, which Potency is on record?
Answer: inactive

Question: `Cc1ccc(S(=O)(=O)Oc2ccccc2/C=N/N=C(N)N)cc1` was tested. Which Potency did it give?
Answer: inconclusive: 15.8 µM [inhibitor, single point]

Question: How did the Potency turn out when `CN1C(=O)/C(=C/C=C/c2ccco2)C(=O)NC1=S` was run?
Answer: active: 15.8 µM

Question: With `Cc1cccc(NC(=O)CCN2CCCCC2)c1` as the compound, how does the Potency read?
Answer: inconclusive: 25.1 µM [inhibitor, partial curve]

Question: `CC1C/C(=C/c2ccco2)C(=O)/C(=C/c2ccco2)C1` (stereo not drawn) was tested. Which Potency did it give?
Answer: inconclusive: 19.9 µM [inhibitor, partial curve]

Question: How did the Potency turn out when `CCOc1ccc2nc(SC3CC(=O)N(c4ccc(OC)cc4)C3=O)sc2c1` (stereo not drawn) was run?
Answer: inactive

Question: With `N#Cc1c(CSCC(=O)O)cc(=O)n2c1[nH]c1ccccc12` as the compound, how does the Potency read?
Answer: inconclusive: 19.9 µM [inhibitor, single point]

Question: `COc1cc(OC)cc(C(=O)Oc2c(CN3CCOCC3)cc(Cl)c3cccnc23)c1` was tested. Which Potency did it give?
Answer: inconclusive: 15.8 µM [inhibitor, single point]

Question: `C[C@H]1CS(=O)(=O)CCN1/N=C\c1ccc([N+](=O)[O-])o1` was tested. Which Potency did it give?
Answer: inactive

Question: `C=CCNC(=S)N/N=C(\C)c1cccc(NC(C)=O)c1` was tested. Which Potency did it give?
Answer: inconclusive: 19.9 µM [inhibitor, partial curve]
